Experimental data taken from the BET-seq Pho4 binding data (Le et al. 2018).
The other results are listed elsewhere or left out. The energies were worked out here from pooled read counts, against the library average; single values are noisy.

Target: T1, Pho4 (S. cerevisiae) (UniProt P07270)
T1 sequence: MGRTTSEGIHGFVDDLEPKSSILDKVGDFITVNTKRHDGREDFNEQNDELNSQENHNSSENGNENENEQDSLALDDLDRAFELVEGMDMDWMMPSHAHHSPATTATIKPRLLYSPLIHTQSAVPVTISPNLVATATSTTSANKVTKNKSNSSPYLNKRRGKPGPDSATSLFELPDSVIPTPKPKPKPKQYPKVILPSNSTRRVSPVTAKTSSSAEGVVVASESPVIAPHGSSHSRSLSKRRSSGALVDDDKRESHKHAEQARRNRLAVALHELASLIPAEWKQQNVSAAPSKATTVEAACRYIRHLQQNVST
Assay: relative binding free energy (BET-seq); higher = weaker binding
Details: reference: library average

Sequence | relative binding free energy
GCCGGCACGTGGTGTA | -0.19 kcal/mol
TTTTTCACGTGGGAGA | 0.29 kcal/mol
CAGGTCACGTGTCTTG | 0.12 kcal/mol
GGTACCACGTGGGTGA | -0.19 kcal/mol
ATTGTCACGTGGAATT | 0.25 kcal/mol
TGGTTCACGTGAGGAG | 0.42 kcal/mol
TTATTCACGTGAGTAG | 0.46 kcal/mol
TTCAGCACGTGTTGAT | 0.11 kcal/mol
GTTGACACGTGTCGGG | 0.1 kcal/mol
GAGTGCACGTGGAAGG | 0.11 kcal/mol
AGTTGCACGTGTGATT | 0.06 kcal/mol
GGTCTCACGTGTTGGT | 0.37 kcal/mol
GTCAACACGTGGTGGT | 0 kcal/mol
ATGATCACGTGTGGGC | 0.15 kcal/mol
GTGGTCACGTGAATAA | 0.33 kcal/mol
TGGAGCACGTGTTGTC | -0.16 kcal/mol
TGGGGCACGTGTGTCT | 0.01 kcal/mol
GGATTCACGTGTGAAA | 0.46 kcal/mol
CTGGTCACGTGGCTTT | 0.11 kcal/mol
TTGCGCACGTGTGTGC | -0.08 kcal/mol
CATTTCACGTGTGGGT | 0.25 kcal/mol
TGCTTCACGTGTGTGG | 0.2 kcal/mol
GGGAGCACGTGAAGGG | 0.26 kcal/mol

Sequence | relative binding free energy
TGTAGCACGTGTGCTC | 0.1 kcal/mol
ATTGACACGTGGTAAA | 0.01 kcal/mol
TTGATCACGTGCAGTA | 0.08 kcal/mol
CGGATCACGTGGGGAG | 0.13 kcal/mol
TTGCGCACGTGAGCGG | 0.09 kcal/mol
TTATTCACGTGGTGTT | 0.18 kcal/mol
TTGGACACGTGTAAAT | 0.05 kcal/mol
TTCAACACGTGCTGGG | 0.11 kcal/mol
GTCTGCACGTGAGGAT | 0.15 kcal/mol
GTTACCACGTGGGAGG | -0.11 kcal/mol
GGGGCCACGTGGGTTG | -0.26 kcal/mol
CAGGGCACGTGCGGGA | -0.11 kcal/mol
TTAGGCACGTGTATGT | -0.1 kcal/mol
ACTTGCACGTGTGTGA | 0.09 kcal/mol
TTTGCCACGTGAAGGT | 0.03 kcal/mol
AGGGACACGTGTAGTG | -0.02 kcal/mol
TATTTCACGTGCATAG | 0.24 kcal/mol
GCATACACGTGTGTTG | 0.13 kcal/mol
TTCCGCACGTGGGGTG | -0.23 kcal/mol
AAGTACACGTGATGTT | 0.17 kcal/mol
GTGGACACGTGGGCGT | -0.16 kcal/mol
GTGGTCACGTGGTGCG | 0.1 kcal/mol
GGGCGCACGTGGAGTA | -0.07 kcal/mol

Sequence | relative binding free energy
CTATGCACGTGTTATT | 0.02 kcal/mol
TATGCCACGTGGGTGT | -0.18 kcal/mol
CATGGCACGTGGGTAA | -0.14 kcal/mol
GCGTTCACGTGTGTAG | 0.31 kcal/mol
TTCTTCACGTGCAGTG | 0.21 kcal/mol
TTAAACACGTGTACGT | 0.02 kcal/mol
GGCTTCACGTGAGGGT | 0.35 kcal/mol
GTGTGCACGTGGTAAA | -0.01 kcal/mol
GGTAACACGTGGGTGG | -0.06 kcal/mol
CTGGTCACGTGATTGT | 0.11 kcal/mol
TTAGTCACGTGATGCG | 0.16 kcal/mol
GAGTGCACGTGTATGG | -0.02 kcal/mol
TAGGTCACGTGGTAGC | 0.15 kcal/mol
GTGATCACGTGGGTCT | 0.14 kcal/mol
TTTCGCACGTGAGGTT | 0.23 kcal/mol
GTTTTCACGTGCAAGG | 0.24 kcal/mol
GGTAGCACGTGTTAAG | -0.05 kcal/mol
ATTTGCACGTGTACGG | 0.05 kcal/mol
AGAGGCACGTGGTTGC | -0.17 kcal/mol
TGAGTCACGTGTAATG | 0.16 kcal/mol
TGTTTCACGTGTTAGA | 0.44 kcal/mol
TGCAACACGTGGTTTT | -0.02 kcal/mol
GCGGTCACGTGTTATG | 0.11 kcal/mol

Sequence | relative binding free energy
GGATGCACGTGAGGAG | 0.29 kcal/mol
TGCGCCACGTGAGGTG | 0 kcal/mol
GAGGACACGTGAGGAG | 0.42 kcal/mol
AATTGCACGTGCAGTT | -0.02 kcal/mol
GGTATCACGTGGAGTG | 0.17 kcal/mol
GGTCTCACGTGTAGAT | 0.45 kcal/mol
GGGGTCACGTGAGGTG | 0.39 kcal/mol
GATAGCACGTGTAATT | 0.1 kcal/mol
GTGTACACGTGATTGT | 0.11 kcal/mol
GGGGGCACGTGAGCGT | 0.07 kcal/mol
GTAGTCACGTGTATTA | 0.09 kcal/mol
TACGTCACGTGGTGTG | -0.05 kcal/mol
TGGCTCACGTGGTCAG | 0.03 kcal/mol
GCTTTCACGTGTTTGA | 0.39 kcal/mol
CTTTTCACGTGATTGC | 0.37 kcal/mol
AGTGACACGTGGTAGG | -0.03 kcal/mol
TGGTGCACGTGAGGGG | 0.16 kcal/mol
ATGATCACGTGGAGGT | -0.04 kcal/mol
GGGTTCACGTGGCGTA | 0.29 kcal/mol
GTGTTCACGTGAAGTG | 0.38 kcal/mol
TTTATCACGTGTTCGT | 0.17 kcal/mol
AGATTCACGTGGCTGA | 0.24 kcal/mol
GGATACACGTGGGACG | 0.02 kcal/mol

Sequence | relative binding free energy
GTGGTCACGTGGTCGA | -0.02 kcal/mol
GTAATCACGTGGTAGT | 0.11 kcal/mol
TGTCGCACGTGGCAAG | -0.07 kcal/mol
GCTTCCACGTGTGGGT | 0.33 kcal/mol
CAGGTCACGTGGGTGC | -0.05 kcal/mol
TTCTGCACGTGTGTCG | -0.04 kcal/mol
GTTAGCACGTGTCGCG | 0 kcal/mol
TAAGTCACGTGGAGGC | 0.12 kcal/mol
CTGTCCACGTGGGTGA | -0.02 kcal/mol
TGTTACACGTGGTCAT | 0.03 kcal/mol
GGGATCACGTGCGGAG | 0.19 kcal/mol
TGGCACACGTGGAGCG | 0.06 kcal/mol
TTGATCACGTGAGTAT | 0.29 kcal/mol
ATTGTCACGTGTTCTC | 0.25 kcal/mol
TCGGTCACGTGGTGTG | 0.09 kcal/mol
TACATCACGTGCGGGG | 0.07 kcal/mol
GGGTTCACGTGGGGGA | 0.26 kcal/mol
AGAGACACGTGTAAGG | 0.05 kcal/mol
TGATGCACGTGTTGGC | -0.01 kcal/mol
TAATGCACGTGTTGTG | 0.02 kcal/mol
GAGCGCACGTGCAGGG | -0.02 kcal/mol
ATGGTCACGTGACAGG | 0.07 kcal/mol
TGGTGCACGTGTAACT | 0.03 kcal/mol
